One molecule from patent publication US20250376501A1 (JINGYUAN BIOSCIENCES SUZHOU, published 2025) can be followed below.

This assay has as its target T1, hTSLP recombinant protein (ACROBiosystems, Cat. No. TSP-H52Ha) (human, UniProt Q969D9 29-159).
T1 construct: Bought protein; also called hTSLP protein; hTSLP-his; not shown: His tag
Nature of the assay: Gator BLI.

T1 sequence (Q969D9 29-159 R127A/R130A limits assumed): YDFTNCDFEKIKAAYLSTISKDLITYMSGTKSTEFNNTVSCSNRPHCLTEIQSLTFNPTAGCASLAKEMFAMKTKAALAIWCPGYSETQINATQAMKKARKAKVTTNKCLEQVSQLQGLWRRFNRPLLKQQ

B1: G7W1-Fc (Fc fusion)
chain: GSDLGKKLLEAAWAGRDDEVRILMANGADVNAGDASGDTPLHLAAVVGHLEIVEVLLKHGADVNAEDLLGMTPLHLAAPFGHLEIVEVLLKHGADVNAAARNNGKTPLHLAAFVGHLEIVEVLLKNGADVNAQDKFGKTAFDISIDNGNEDLAEILQKLNG[left out - human IgG1 Fc]
As for B1, the Kd worked out at 0.582 nM, the koff was found to be 0.000365 s⁻¹ and the kon was 625000 M⁻¹ s⁻¹.

Usually Kd stands for the free concentration of one partner at which half of the binding sites on the other are occupied at equilibrium, for simple one-to-one binding. Usually koff stands for the rate constant with which the complex falls apart. By kon is commonly meant the second-order rate constant of association.
